# Test results reported in the supplement of paper PMC8728848.
# The list shows a part of the results.
# How the values were obtained:
# Test in all cases: glycan array binding signal (z-score within array); higher = stronger binding
# Settings in all cases: glycan notation: IUPAC condensed, linker removed; mutation: F335Y
# [1] = biological target: Neu5Ac(a2-6)Gal(b1-4)GlcNAc
# Method in brief: (§1)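 Columns mapping to the same glycan were averaged after glycan names were converted to IUPAC-condensed notation. The data come from 3228 arrays in the Consortium for Functional Glycomics database, limited to those with an available protein sequence. Binding is reported as a within-array Z-score averaged across arrays of one protein sequence and across linkers.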
# [2] = biological target: Neu5Ac(a2-6)Gal(b1-4)GlcNAc(b1-2)Man(a1-3)[Gal(b1-4)GlcNAc(b1-2)Man(a1-6)]Man(b1-4)GlcNAc(b1-4)GlcNAc
# Method in brief: as §1
# [3] = biological target: Neu5Ac(a2-6)Gal(b1-4)GlcNAc(b1-2)Man(a1-3)[GlcNAc(b1-2)Man(a1-6)]Man(b1-4)GlcNAc(b1-4)GlcNAc
# Method in brief: as §1
# [4] = biological target: Neu5Ac(a2-6)Gal(b1-4)GlcNAc(b1-2)Man(a1-3)[GlcNAc(b1-2)Man(b1-4)GlcNAc(b1-2)Man(a1-6)]Man(b1-4)GlcNAc(b1-4)GlcNAc
# Method in brief: as §1
# [5] = biological target: Neu5Ac(a2-6)Gal(b1-4)GlcNAc(b1-2)Man(a1-3)[Neu5Ac(a2-6)Gal(b1-4)GlcNAc(b1-2)Man(a1-6)]Man(b1-4)GlcNAc(b1-4)GlcNAc
# Method in brief: as §1
# [6] = biological target: Neu5Ac(a2-6)Gal(b1-4)GlcNAc(b1-2)Man(a1-6)[Gal(b1-4)GlcNAc(b1-2)Man(a1-3)]Man(b1-4)GlcNAc(b1-4)GlcNAc
# Method in brief: as §1
# [7] = biological target: Neu5Ac(a2-6)Gal(b1-4)GlcNAc(b1-2)Man(a1-6)[GlcNAc(b1-2)Man(a1-3)]Man(b1-4)GlcNAc(b1-4)GlcNAc
# Method in brief: as §1
# [8] = biological target: Neu5Ac(a2-6)Gal(b1-4)GlcNAc(b1-3)Gal(b1-4)GlcNAc
# Method in brief: as §1
# [9] = biological target: Neu5Ac(a2-6)Gal(b1-4)GlcNAc(b1-3)Gal(b1-4)[Fuc(a1-3)]GlcNAc(b1-3)Gal(b1-4)[Fuc(a1-3)]GlcNAc
# Method in brief: as §1
# [10] = biological target: Neu5Ac(a2-6)Gal(b1-4)GlcNAc6S
# Method in brief: as §1
# [11] = biological target: Neu5Ac(a2-6)GalNAc
# Method in brief: as §1
# [12] = biological target: Neu5Ac(a2-6)GalNAc(b1-4)GlcNAc
# Method in brief: as §1
# [13] = biological target: Neu5Ac(a2-8)Neu5Ac
# Method in brief: as §1
# [14] = biological target: Neu5Ac(a2-8)Neu5Ac(a2-3)Gal(b1-4)Glc
# Method in brief: as §1
# [15] = biological target: Neu5Ac(a2-8)Neu5Ac(a2-3)[GalNAc(b1-4)]Gal(b1-4)Glc
# Method in brief: as §1
# [16] = biological target: Neu5Ac(a2-8)Neu5Ac(a2-8)Neu5Ac
# Method in brief: as §1
# [17] = biological target: Neu5Ac(a2-8)Neu5Ac(a2-8)Neu5Ac(a2-3)Gal(b1-4)Glc
# Method in brief: as §1
# [18] = biological target: Neu5Ac(a2-8)Neu5Ac(a2-8)Neu5Ac(a2-3)[GalNAc(b1-4)]Gal(b1-4)Glc
# Method in brief: as §1
# [19] = biological target: Neu5Ac(a2-8)Neu5Ac(a2-8)Neu5Ac(a2-8)Neu5Ac(a2-3)[GalNAc(b1-4)]Gal(b1-4)Glc
# Method in brief: as §1
# [20] = biological target: Neu5Ac(b2-6)Gal(b1-4)GlcNAc
# Method in brief: as §1
# [21] = biological target: Neu5Ac(b2-6)GalNAc
# Method in brief: as §1
# [22] = biological target: Neu5Ac9Ac(a2-6)Gal(b1-4)GlcNAc
# Method in brief: as §1
# [23] = biological target: Neu5Gc(a2-3)Gal(b1-3)GlcNAc
# Method in brief: as §1
# [24] = biological target: Neu5Gc(a2-3)Gal(b1-3)[Fuc(a1-4)]GlcNAc
# Method in brief: as §1
# [25] = biological target: Neu5Gc(a2-3)Gal(b1-4)Glc
# Method in brief: as §1
# [26] = biological target: Neu5Gc(a2-3)Gal(b1-4)GlcNAc
# Method in brief: as §1
# [27] = biological target: Neu5Gc(a2-3)Gal(b1-4)[Fuc(a1-3)]GlcNAc
# Method in brief: as §1
# [28] = biological target: Neu5Gc(a2-6)Gal(b1-4)GlcNAc
# Method in brief: as §1
# [29] = biological target: Neu5Gc(a2-6)GalNAc
# Method in brief: as §1
# [30] = biological target: Neu5Gc(b2-6)Gal(b1-4)GlcNAc
# Method in brief: as §1
binder,measurement,setting,value
Surfactant Protein D (Human); Neck + Carbohydrate Recognition Domain (NCRD) (Homo sapiens) (protein) MLLFLLSALVLLTQPLGYLEAEMKTYSHRTMPSACTLVMCSSVESGLPGRDRDGREGPRGEKGDPGLPGAAGQAGMPGQAGPVGPKGDNGSVGEPGPKGDTGPSGPPGPPGVPGPAGREGALGKQGNIGPQGKPGPKGEAGPKGEVGAPGMQGSAGARGLAGPKGERGVPGERGVPGNTGAAGSAGAMGPQGSPGARGPPGLKGDKGIPGDKGAKGESGLPDVASLRQQVEALQGQVQHLQAAFSQYKKVELFPNGQSVGEKIFKTAQFVKPFTEAQLLCTQAGGQLASPRSAAENAALQQLVVAKNEAAFLSMTDSKTEGKFTYPTGESLVYSNWAPGEPNDDGGSEDCVEIYTNGKWNDRACGEKRLVVCEF,glycan array binding signal (z-score),[1],-0.19
same,glycan array binding signal (z-score),[2],-0.18
same,glycan array binding signal (z-score),[3],-0.185
same,glycan array binding signal (z-score),[4],-0.184
same,glycan array binding signal (z-score),[5],-0.174
same,glycan array binding signal (z-score),[6],-0.177
same,glycan array binding signal (z-score),[7],-0.065
same,glycan array binding signal (z-score),[8],-0.188
same,glycan array binding signal (z-score),[9],-0.122
same,glycan array binding signal (z-score),[10],-0.187
same,glycan array binding signal (z-score),[11],-0.179
same,glycan array binding signal (z-score),[12],-0.19
same,glycan array binding signal (z-score),[13],-0.185
same,glycan array binding signal (z-score),[14],-0.188
same,glycan array binding signal (z-score),[15],-0.189
same,glycan array binding signal (z-score),[16],-0.187
same,glycan array binding signal (z-score),[17],-0.189
same,glycan array binding signal (z-score),[18],-0.188
same,glycan array binding signal (z-score),[19],-0.126
same,glycan array binding signal (z-score),[20],-0.19
same,glycan array binding signal (z-score),[21],-0.19
same,glycan array binding signal (z-score),[22],-0.183
same,glycan array binding signal (z-score),[23],-0.184
same,glycan array binding signal (z-score),[24],-0.186
same,glycan array binding signal (z-score),[25],-0.186
same,glycan array binding signal (z-score),[26],-0.195
same,glycan array binding signal (z-score),[27],-0.177
same,glycan array binding signal (z-score),[28],-0.193
same,glycan array binding signal (z-score),[29],-0.187
same,glycan array binding signal (z-score),[30],-0.159
